Assay results from the RNAGym collection of RNA variant scans (doi:10.7554/elife.90254).
Read counts are not given, so values of variants with three or more changes are uncertain.

B1: LINE1-mini (parent)
chain: GGCAGAGCUCAACACAGCGUGGCAAAGUGGCUGUGGCUAGACUGCC

Variants of: B1
Assay: self-cleavage, relative activity (ratio to wild type); higher = more cleavage; in vitro, sequencing; the parent is a self-cleaving ribozyme

Question: For GUCAGGGCUCAACACAGCGUGGCAAAGUGGCUGUGGCUAGACUGCU [G2U A6G C46U], which self-cleavage is on record?
Answer: Its self-cleavage is 0.03.

Question: For GCCAGAGCUCAACACAGCGUGGCAAAGUGGCUGUGUCUAGACUUCC [G2C G36U G44U], which self-cleavage is on record?
Answer: The self-cleavage was 0.07.

Question: Which self-cleavage does the source give for GCCAGAGCCCAAGACAGCGUGGCAAAGUGGCUGUGGCUAGACAGAC [G2C U9C C13G U43A C45A] here?
Answer: The self-cleavage was 0.01.

Question: Which self-cleavage does the source give for GCCAGAGCUCAACACAGCGAGACUAAGUGGCUGUGGCUAGACUGCC [G2C U20A G22A A24U] here?
Answer: Its self-cleavage is 0.1.

Question: With GCCAGAGCUCAACACAGCGUGGCAAAGUGGCUGUCGCUAGACGGCC [G2C G35C U43G] as the variant, how does the self-cleavage read?
Answer: The self-cleavage was 0.09.

Question: For GCCAGAGCUCAACACAGCGUGGCAAAGUGGCUGUAGCUAGACUGCG [G2C G35A C46G], which self-cleavage is on record?
Answer: The self-cleavage was 0.15.

Question: With GUCAGCGCUCAACACAGCGUGGCAGAGUGGCUGUGGCUAGACUGCC [G2U A6C A25G] as the variant, how does the self-cleavage read?
Answer: Its self-cleavage is 0.01.

Question: With GUCAGCGCUCAACACAACGUGGCAAAGUGGCUGUGGAUAGACUGCC [G2U A6C G17A C37A] as the variant, how does the self-cleavage read?
Answer: Its self-cleavage is 0.02.

Question: For GCCAGAGCUCAACACAGCGUGGCAAAGUGGCUGCGGCCACGCAGCC [G2C U34C U38C G40C A41G U43A], which self-cleavage is on record?
Answer: Its self-cleavage is 0.14.

Question: For GUCGGAGCUCAACACAGCGUGGAAAAGUGGCUGUUGUUAGUCUGCU [G2U A4G C23A G35U C37U A41U C46U], which self-cleavage is on record?
Answer: Its self-cleavage is 0.01.

Question: With GUCAGAGCUCCACACAGCGUGCCCAAGUGGCUGUGGCUAGACUGCC [G2U A11C G22C A24C] as the variant, how does the self-cleavage read?
Answer: The self-cleavage was 0.

Question: For GUCAGAGCUCGACACAGCGUCGCAAAGUGGCUGUGGCUAGACUGCC [G2U A11G G21C], which self-cleavage is on record?
Answer: The self-cleavage was 0.01.

Question: With GCCAGAGCGCAACACAGCGUGGCAAAGUGGCUGGGGCUAGACUGAC [G2C U9G U34G C45A] as the variant, how does the self-cleavage read?
Answer: Its self-cleavage is 0.09.

Question: Which self-cleavage does the source give for GUCAGUGCUCAAUACAGCGUGGCAACGUGGCUGGGGCUAGACUGCC [G2U A6U C13U A26C U34G] here?
Answer: Its self-cleavage is 0.33.

Question: Which self-cleavage does the source give for GCCAGAGCUCAACACAGCGUGGCAAAGUGACCGUGGCUAGACUGCC [G2C G30A U32C] here?
Answer: The self-cleavage was 0.06.

Question: Which self-cleavage does the source give for GCCAGAGCUCAACACAGCGUGGCAAAUUGGCUUAGGCUAGACUGCC [G2C G27U G33U U34A] here?
Answer: The self-cleavage was 0.04.

Question: With GCCAGAGCUCAACACAGCGUUGCAAAGUGGCUGCGGCUAGACUGCC [G2C G21U U34C] as the variant, how does the self-cleavage read?
Answer: Its self-cleavage is 0.09.

Question: Which self-cleavage does the source give for GCCAGAGCCGAUCACAGUGUGGCAAAGUGGCUGUGGCUAGACUUCC [G2C U9C C10G A12U C18U G44U] here?
Answer: Its self-cleavage is 0.01.

Question: Which self-cleavage does the source give for GUCAGUGCUCAACACACCGUGGCAAAGUGGCUGUGGCUAGUCUGCC [G2U A6U G17C A41U] here?
Answer: Its self-cleavage is 0.21.

Question: For GCCAGAGCUCAACACAGCGUUGCAAAGUGGCUGUGGCUAGACUUCC [G2C G21U G44U], which self-cleavage is on record?
Answer: The self-cleavage was 0.17.

Question: Which self-cleavage does the source give for GCCAGAGCUCAACACAGCGUGGCAAAGUGGCUGUGGCGUGACUGCC [G2C U38G A39U] here?
Answer: The self-cleavage was 0.1.

Question: For GUCAGUGCUCAACACAGCGAGGCAAAGUGGCUGUGGCUAGCCUGCC [G2U A6U U20A A41C], which self-cleavage is on record?
Answer: The self-cleavage was 0.04.

Question: For GCCAGAGCUCAACACAGCGUAGCGAAGUGGCCGAGGCUAGACUGCC [G2C G21A A24G U32C U34A], which self-cleavage is on record?
Answer: The self-cleavage was 0.04.

Question: Which self-cleavage does the source give for GUCAGAGCUCGACACAGCGUGGCAAAGUGGCUGUGGCUGGACUGCC [G2U A11G A39G] here?
Answer: The self-cleavage was 0.01.

Question: With GCCAGAGCUCAACACAGCGUGCCGAAGUUGCUGUGGCUAGACUGCC [G2C G22C A24G G29U] as the variant, how does the self-cleavage read?
Answer: Its self-cleavage is 0.09.

Question: Which self-cleavage does the source give for GUCUGAGCUCAACACCGCGUGGCAAAAUGGCUGUGGCUAGACAGCC [G2U A4U A16C G27A U43A] here?
Answer: The self-cleavage was 0.03.

Question: For GCCAGAGCUCAACACAGCGUGGCAAAGUGUUUGUGGCUAGACUGCC [G2C G30U C31U], which self-cleavage is on record?
Answer: The self-cleavage was 0.06.

Question: Which self-cleavage does the source give for GCCAGAGCCCAACACAGCGUGACAAAGUGGCUGUGGCUUGACUGCC [G2C U9C G22A A39U] here?
Answer: Its self-cleavage is 0.05.

Question: For GCCAGAGCUCAACACAGCGGGGCAAAGUGGCUGUGGCUAGACUGUC [G2C U20G C45U], which self-cleavage is on record?
Answer: The self-cleavage was 0.26.

Question: For GCCAGAGCUCAACACAGCUUGGCAAAGUGGCUGUGGCUAGUCUGCC [G2C G19U A41U], which self-cleavage is on record?
Answer: Its self-cleavage is 0.01.

Question: Which self-cleavage does the source give for GCCAGAGCACAACACAGCGUGGUAAAGUGGCUGUGGCUGGACUGCC [G2C U9A C23U A39G] here?
Answer: Its self-cleavage is 0.11.

Question: Which self-cleavage does the source give for GCCAGAGCUCAACACAGCGUGGCAAAGCCGCUGUGGCUAGACUGCC [G2C U28C G29C] here?
Answer: Its self-cleavage is 0.03.

Question: Which self-cleavage does the source give for GUCUGAGCUCAACACAGCGUGGCUAAGUGGCUGUGGCUACACUGCC [G2U A4U A24U G40C] here?
Answer: The self-cleavage was 0.09.

Question: For GUCAGGGAUCAACACAGCGUGGCAAAGUGGCUGUGACUAGACUGCC [G2U A6G C8A G36A], which self-cleavage is on record?
Answer: The self-cleavage was 0.24.

Question: For GUCAGAGCUCCACACAGCGUAGUAAAGUGUCUGUGGCUAGACUGCC [G2U A11C G21A C23U G30U], which self-cleavage is on record?
Answer: The self-cleavage was 0.03.

Question: Which self-cleavage does the source give for GUCUGCGCUCAACACAGCGUGGCAAAGUGGCUGUGGCUAGACUGAC [G2U A4U A6C C45A] here?
Answer: The self-cleavage was 0.01.

Question: With GUCUGAGCUCAACACAGCGUGACAAAGUGGCUGUGGCUAGACUGCC [G2U A4U G22A] as the variant, how does the self-cleavage read?
Answer: The self-cleavage was 0.08.

Question: For GCCAGAGCCCAACAAAGCGUGGCAAAGUGGCUGUGCCUAGACUGCA [G2C U9C C15A G36C C46A], which self-cleavage is on record?
Answer: The self-cleavage was 0.01.

Question: With GCCAGAGCUCAACACAGCAUGGAAAAGUGGCUGUUUCUAGACUGCC [G2C G19A C23A G35U G36U] as the variant, how does the self-cleavage read?
Answer: The self-cleavage was 0.91.

Question: Which self-cleavage does the source give for GCCAGAGCCCUACACAGAGUGGCAAAGUGGCUGUGGCUAGCCUGCC [G2C U9C A11U C18A A41C] here?
Answer: Its self-cleavage is 0.01.

Question: With GUCCGAGCUCAACACAGCGUGGCAAAGUGGCAGUGGCUAGACUGCC [G2U A4C U32A] as the variant, how does the self-cleavage read?
Answer: Its self-cleavage is 0.11.

Question: For GUCAGGGCUUAACACAGCGUGGCAAAAUGGCAGUGGCUCGACUGCC [G2U A6G C10U G27A U32A A39C], which self-cleavage is on record?
Answer: Its self-cleavage is 0.

Question: With GCCAGAGCAAAACACAGCGUGGCUAAGUGGAUGUGGCCAGACUGCC [G2C U9A C10A A24U C31A U38C] as the variant, how does the self-cleavage read?
Answer: The self-cleavage was 0.01.

Question: For GCCAGAGCUCAACACAGCGUGCCAAAGUGGCGGUGGCUAGUCUGCC [G2C G22C U32G A41U], which self-cleavage is on record?
Answer: The self-cleavage was 0.1.

Question: For GCCAGAGCUCAACACAGCGUGGCAAAGUGGCUGGGGCUAGACUGAC [G2C U34G C45A], which self-cleavage is on record?
Answer: Its self-cleavage is 0.1.

Question: With GUCGGAGCUCAACCCAGCGUGGCAAAGUGGCUGUGGCUAUACUGCC [G2U A4G A14C G40U] as the variant, how does the self-cleavage read?
Answer: The self-cleavage was 0.02.

Question: Which self-cleavage does the source give for GUCCGAGCUCAACACCGCGUGGCAAAGUGGCUCUGGCUAGACUGCC [G2U A4C A16C G33C] here?
Answer: Its self-cleavage is 0.03.

Question: With GUCCGAGCUCUACACAGCGUGGCAAAGUGGCUCUGGCUAGACUGCC [G2U A4C A11U G33C] as the variant, how does the self-cleavage read?
Answer: Its self-cleavage is 0.05.

Question: Which self-cleavage does the source give for GUCGGAGCUCAACACAGCGUGGCAAAGUCGCUGUGGCUAGACUGCC [G2U A4G G29C] here?
Answer: Its self-cleavage is 0.04.

Question: Which self-cleavage does the source give for GCCAGAGCUCAACACAGCGUCGCAAAGGGCCUGUUGCUAGACUGCC [G2C G21C U28G G30C G35U] here?
Answer: The self-cleavage was 0.02.

Question: Which self-cleavage does the source give for GUCCGAGCGCAACGAAGCGUGGCAAAGUGGCUGUGACUAGACUGCC [G2U A4C U9G A14G C15A G36A] here?
Answer: Its self-cleavage is 0.02.

Question: Which self-cleavage does the source give for GUCGGAGGUCACCACCGCGUGGCAAAGUGGCUGUGGCUAGACUGCC [G2U A4G C8G A12C A16C] here?
Answer: Its self-cleavage is 0.01.

Question: For GCCAGAGCUCAACACAGCGUGGCAAAGUUGCUGGGGAUAGAUUGCC [G2C G29U U34G C37A C42U], which self-cleavage is on record?
Answer: Its self-cleavage is 0.04.

Question: With GUCAGAGCUCCACACAGCGUGGCAAAGUGGCUGUGGCUAGACUGAC [G2U A11C C45A] as the variant, how does the self-cleavage read?
Answer: The self-cleavage was 0.01.

Question: For GUCAGCGCUCAACACAGCGUGGCAAAGUGGCUGUGUCUGUACUGCC [G2U A6C G36U A39G G40U], which self-cleavage is on record?
Answer: The self-cleavage was 0.03.

Question: Which self-cleavage does the source give for GCCAGAGCUCAACACAGCAUGGCAAAGUGCCUGUGGCUAGAUUGCC [G2C G19A G30C C42U] here?
Answer: The self-cleavage was 0.01.
